The text below walks through data of publication PMC12136788.

The labels stand for the following.
T1: UNK ZnF1-3 (human, UniProt Q9C0B0 31-174)
T1 sequence: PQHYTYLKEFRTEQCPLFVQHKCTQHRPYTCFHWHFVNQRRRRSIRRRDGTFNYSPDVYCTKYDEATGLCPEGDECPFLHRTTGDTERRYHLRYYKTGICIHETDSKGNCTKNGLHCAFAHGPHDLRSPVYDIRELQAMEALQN

B1: chr22:32879901:32879902:+_ENSG00000100225_ENST00000397426|hu_mus|hu_hu_hu_mus_False|1_28 (ssRNA)
RNA: GGGAGUUCUACAGUCCGACGAUCCUCUUCCAUACUCAUGGCAUCCUGAAUUGACUCAGCUUCAACAUUUUGACUAGGCCCUUCCAUACUGUCAUCAGUCCAGGCAUCAGACUGGGCGGCCUGUCCUUGGGAUGAAUCACUUGGCAACAGAGGAUUGAGCAUCA
B2: chr5:65459698:65459699:+_ENSG00000153914_ENST00000334121|hu_mus|FALSE|FALSE (ssRNA)
RNA: GGGAGUUCUACAGUCCGACGAUCCAUUACUUCUUCUAACUCCUUAGCUGCAGCCUGAGGUGUCAUCUCAGGAGGUUUUACUAUUGCAUUGUUGGAGUGAUUUAUUUUCAGUGGCCUGUCUCCAAACAUAACUCCAUUAAAAGCCAACAGAGGAUUGAGCAUCA
B3: chr18:56819859:56819860:+_ENSG00000166562_ENST00000588875|hu_mus|hu_hu_hu_mus_True|8_18 (ssRNA)
RNA: GGGAGUUCUACAGUCCGACGAUCAACCUUGAUUACUCUGUGAACUAUCGGAAUGUCUCUUCCUUCAACCUUAAAAACAACUAUUUCACCAGCUCUGAUGGGGUCCUCCCGGAAAUUUGUGAGGAACAGGAGGUCUCCUCUGUGCAACAGAGGAUUGAGCAUCA
B4: chr2:9570881:9570882:+_ENSG00000119203_ENST00000238112|hu_mus|hu_hu_hu_mus_False|8_8 (ssRNA)
RNA: GGGAGUUCUACAGUCCGACGAUCACUUGUCUUCUGAAGGAACCAGGGCAGGGCUCCACAGUGAUCCAAAUGGAAAUGACUGAUCAACAGAAGGUCGAUCUCAGCUGGGUCGAUAAGGUCAAUGUAAGGAAGAGCAUCCAUUCCCAACAGAGGAUUGAGCAUCA
B5: 78600971_78602308_1345_CDS_ENSG00000149256_ENST00000278550|human|control|control (ssRNA)
RNA: GGGAGUUCUACAGUCCGACGAUCCGGAGGAGAGUACACUGUGCUGGACGUCAGUGGGUACCCUGGUGAUGUGGUGCAGAAGAGCGGGGAGGUGCCUCCAGGCUUGAAGAGGAAGUGCCCGUCACUGUAAGCCCCAUCAUGGCGCAACAGAGGAUUGAGCAUCA
B6: chr1:118462952:118462953:-_ENSG00000196505_ENST00000369442|hu_hu|motif|central (ssRNA)
RNA: GGGAGUUCUACAGUCCGACGAUCGGCAUGAGUCACCCCAGCUUGGUAGUGUAUCCACAUCCACAAACUGGGAAGGUGCACCGGAGGGAUCCAUGGAAUGGGAACUUUGAUUUGUCUUUUCCCAAAAUCCUCAGCAAUUCAAUACAACAGAGGAUUGAGCAUCA
B7: chr2:216981417:216981418:+_ENSG00000079246_ENST00000392132|hu_hu|hu_hu_hu_mus_True|58_98 (ssRNA)
RNA: GGGAGUUCUACAGUCCGACGAUCCUGAUACUGGUCCCCACCAGAAAGGGCAUUAUCAGUGCCAUCUGUGCCAUAGAGGACUAAAGCAAUCUCAUCUUUGCUCUCCGAAAAUACCUGUCGUUGGACAAACAUAGUCAUCACUUUCAACAGAGGAUUGAGCAUCA
B8: chr4:175180916:175180917:-_ENSG00000164117_ENST00000503293|hu_hu|motif|central (ssRNA)
RNA: GGGAGUUCUACAGUCCGACGAUCAUUAAAGGUGAGGCUGCCUUCAUCCAGCUGCAUAUACAAUUUUCUAAAAGAAAAUCCGGAAGGUGGGUUCUUAUUGUAUAUGGAACAGUGACCCCAAGUGGAUUUGCACAACCCUUGCCACAACAGAGGAUUGAGCAUCA
B9: chr15:80414081:80414082:+_ENSG00000086666_ENST00000558494|hu_hu|FALSE|FALSE (ssRNA)
RNA: GGGAGUUCUACAGUCCGACGAUCUGGUAAAGAUUCAGACAGACUACUGACAGAGGUUGCAGGUGGGCUUAUUCUACCAUUACUACUAUUCUGUCUUUGAAGAUGUUCUUUAUAGCAUACUGAACACAUGCCAUUUGUACGAGGCAACAGAGGAUUGAGCAUCA
B10: chr11:77333689:77333690:-_ENSG00000074201_ENST00000263309|hu_mus|FALSE|FALSE (ssRNA)
RNA: GGGAGUUCUACAGUCCGACGAUCCUCCAACGUGGCUUGCCCUUCCGCUGUUAAAUGGGAUAGUCCUUCUUCAUAGGUAUAAAAUGUAGGGAUGUCCCCUUGUCCUUGUUCAUGUGCCUCCACAUCAUACUCCUCUCCAUCAUACAACAGAGGAUUGAGCAUCA
B11: chr5:71494600:71494601:+_ENSG00000131711_ENST00000296755|hu_hu|motif|central (ssRNA)
RNA: GGGAGUUCUACAGUCCGACGAUCCAUUGUAUCGAAUAACACUGAGGCACGGAAGCCAUAGGGCUCUGCGGAUGCUGCAUCGGUUGGUGGAGAAGAGGAACUGUGGCAAGUUGCUGUUUUCUCUUUGACUGCAGAGGUAGAAUCCAACAGAGGAUUGAGCAUCA
B12: 35991445_35991821_4851_CDS_ENSMUSG00000061607_ENSMUST00000082337|mouse|control|control (ssRNA)
RNA: GGGAGUUCUACAGUCCGACGAUCGAAGCAACCAGCCUUUCGGGACUGGUACAGCCAGUUCAGGGACAGGAUGGGAAUUCCCUUCCCCAGGGCACACAAGAACUUGACUGUCCUGCGGAUGCGAUCAGUAACUAAGUGGGAGGCCAACAGAGGAUUGAGCAUCA
B13: chr4:4237396:4237397:-_ENSG00000132406_ENST00000382753|hu_mus|FALSE|FALSE (ssRNA)
RNA: GGGAGUUCUACAGUCCGACGAUCAAAGAACAUAAGUUGAAAAAUGUUAAAAACCCAAUAACUUAUAUAAUGAUAAAACCCAGAGUAACAAGAAACCAUAAGAUACUUCCGUUUGGUCCUCUUCUUAAAAAACUAUGACAAAUACAACAGAGGAUUGAGCAUCA
B14: 2809365_2809651_1311_CDS_ENSG00000167978_ENST00000301740|human|control|control (ssRNA)
RNA: GGGAGUUCUACAGUCCGACGAUCAGUAUCGGAGGAGGAAGCAGAGUCAGCAGAAGUUGAACGGUGGGCCCGGCGGCUCUUGGGGGCUGGUGUUGUACUUCGAGACCGCUUUCGCUUUUUGUCCUUAGAUUUACGUUUGCUCUUCAACAGAGGAUUGAGCAUCA

The list shows a part of the results.

The target of this assay is T1, UNK ZnF1-3. Briefly: nsRBNS (natural sequence RNA bind-n-seq); RBNS binding buffer (assumed for nsRBNS): 25 mM Tris pH 7.5, 150 mM KCl, 3 mM MgCl2, 0.01% Triton X-100, 500 ug/ml BSA, 20 U/ml SUPERase-In, 4 C; UNK is unkempt and MSI1 is Musashi-1; names of the RNAs are library labels; protein concentration not given here; high values mean tight binding.
B1 yielded a binding signal of 0.984 enrichment R.

On to B2, for which the binding signal is 0.871 enrichment R. As for B3, the binding signal stood at 0.757 enrichment R. B4 registered a binding signal of 1.65 enrichment R. In the case of B5, the binding signal stood at 1.22 enrichment R.

Turning to B6, the binding signal worked out at 0.956 enrichment R.

In turn, B7 returned a binding signal of 1.08 enrichment R.

The molecule B8 had a binding signal of 1.81 enrichment R. Under B9 stands 0.894 enrichment R; under B10, 0.976 enrichment R. Regarding B11, the binding signal is 1.29 enrichment R. B12 yielded a binding signal of 1.25 enrichment R.

On to B13, for which the binding signal was 2.22 enrichment R. With B14, the binding signal came out at 1.46 enrichment R.
